Results taken from PubChem BioAssay AID1479 (National Center for Advancing Translational Sciences (NCATS), 2009).
The whole screen tested about 280,000 compounds, of which about 820 (0.29%) were called active. Inconclusive means that the source gave no clear call. Such entries were picked first, then a sample of the others. Calls follow the shape of the dose curve; as a rule, active = well fitted curve in either direction with a large enough effect; inconclusive = small, poorly fitted or top-dose-only effect; inactive = flat fitted curve, though single readings scatter. No potency is given beside an inconclusive call; the fits are too rough.

Test: Total Fluorescence Counterscreen for Inhibitors of the Interaction of Thyroid Hormone Receptor and Steroid Receptor Coregulator 2
Settings: TRb/SRC2 Texas Red total fluorescence interference; series mostly up to 106 µM
Method in brief: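 Flags fluorescent or light-absorbing compounds by total fluorescence, S + 2P, at 555 nm excitation and 632 nm emission. Mixture: 20 nM Texas Red SRC2 peptide, 0.6 uM human TRb LBD, 1 uM T3, 5% DMSO; compound exposure 5 h at ambient temperature.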
% is scaled to controls: 0 for no effect and ±100 for the full control effect; potency is read from the fitted curve at half-maximal effect; tags tell the direction and shape of the fitted curve or compound fluorescence and quenching.

| SMILES | Potency | fluorescence change, negative = quenching |
| --- | --- | --- |
| Cc1ccc(C)c(N=Nc2ccc(O)c3ncccc23)c1 | inactive | – |
| O=C(/C=C/c1ccco1)Nc1ccc(C(=O)N2CCOCC2)cc1 | inactive | – |
| CCc1ccc(NCc2cc3cc4c(cc3n(CC(=O)Nc3ccc(OC)cc3)c2=O)OCO4)cc1 | inactive | – |
| COc1cccc(-n2ccnc2SCC(=O)Nc2cccc3ccccc23)c1 | inconclusive [falling, partial curve, poor fit] | – |
| CN(C)/C=C1/C(=O)N(c2ccc([N+](=O)[O-])cc2)N=C1c1ccccc1 | inactive | – |
| Cc1ccc(CNC(=O)C2CCCN(c3nc4ccccc4n4cccc34)C2)cc1 (stereo not given) | inconclusive [falling, partial curve, poor fit] | – |
| CC1=NN(c2nc(-c3ccc(C)cc3)cs2)C(=O)C1N=Nc1ccc(C(N)=O)cc1 (stereo not given) | inactive | – |
| Cc1cccc(NC(=O)Cn2c(=O)n(Cc3nc(-c4ccccc4)no3)c(=O)c3ccccc32)c1 | inactive | – |
| COc1ccc(CNC(=O)C2CCN(C(=O)N3CCOc4ccc(C)cc43)CC2)cc1 | inconclusive [falling, partial curve, poor fit] | – |
| CC1CCCN(C(=O)c2ccc(CSc3nc4ccncc4n3Cc3ccccc3)cc2)C1 (stereo not given) | inconclusive [falling, full curve, poor fit] | – |
| Cc1ccc(N2CN(Cc3cccnc3)CNC2=S)c(C)c1 | inconclusive [falling, partial curve, poor fit] | – |
| Cc1ccc(N(C)S(=O)(=O)c2nnc(NC(=O)c3ccco3)s2)cc1 | inconclusive [falling, full curve, poor fit] | – |
| O=C(Nc1ccc(N2CCN(C(=O)c3ccc(Cl)cc3)CC2)cc1)c1ccc([N+](=O)[O-])o1 | inactive | – |
| O=C(Nc1cccc(C(F)(F)F)c1)c1ccc2nc(-c3ccco3)c(-c3ccco3)nc2c1 | active: 8.91 µM [quencher] | – |
| O=C(Nc1cc(Cl)ccc1O)c1cc(-c2ccc3c(c2)OCO3)on1 | inconclusive [falling, full curve, poor fit] | – |
| CC(=O)/C(C)=N/O | inconclusive [quencher, full curve] | – |
| COc1ccc(C(=O)NNC(=O)C(C)NC(=O)c2ccccc2NC(=O)c2ccco2)cc1 (stereo not given) | inconclusive [falling, partial curve, poor fit] | – |
| O=C1C(=O)N(Cc2cccc([N+](=O)[O-])c2)c2ccccc21 | inactive | – |
| CCc1ccc(NC(=O)N2CCN(c3nnc(C)c4c(C)n(-c5ccc(Cl)cc5)nc34)CC2)cc1 | inconclusive [falling, full curve, poor fit] | – |
| CC1CN(C(=S)SCCN2Cc3ccccc3C2=O)CC(C)O1 (stereo not given) | inconclusive [falling, full curve, poor fit] | – |

| SMILES | Potency | fluorescence change, negative = quenching |
| --- | --- | --- |
| CCOC(=O)c1cc(OC(=O)c2cccc(F)c2)n(-c2ccccc2)n1 | inconclusive [falling, full curve, poor fit] | – |
| N#C/C(=C\c1c(Oc2ccc(F)cc2)nc2ccccn2c1=O)c1nc2ccccc2s1 | inconclusive [quencher, full curve] | – |
| Oc1ccc(NCc2ccccc2OCc2ccccc2Cl)cc1 | inconclusive [falling, full curve, poor fit] | – |
| COc1ccc(C(=O)NCc2nnc(SCC(=O)Nc3ccc(F)cc3)n2-c2ccccc2)cc1 | inconclusive [quencher, full curve] | – |
| O=C(NCC(c1cccnc1)N1CCc2ccccc21)C(=O)Nc1ccccc1F (stereo not given) | active: 0.316 µM [quencher] | – |
| CC(NC(=O)c1cc(-c2ccc(Cl)cc2)on1)c1ccccc1 (stereo not given) | inconclusive [falling, full curve, poor fit] | – |
| CC1Cn2cc(C(=O)Nc3ccccc3C(F)(F)F)c(=O)c3c(Cl)ccc(c32)O1 (stereo not given) | inconclusive [falling, partial curve, poor fit] | – |
| CCOC(=O)C1CN(S(=O)(=O)c2cccc(C(F)(F)F)c2)c2cc(CC(=O)OC)ccc2O1 (stereo not given) | inactive | – |
| CC(=O)OC1CC[C@@]2(C)C3=CC(=O)[C@]4(C)C(CC5OC6(OCC(C)CC6Br)C(C)C54)C3CC[C@H]2C1 (stereo not given in full) | inconclusive [quencher, full curve] | – |
| COc1ccc(-c2nc3c(c4c2C[C@H](c2ccccc2)OC4)CN(S(=O)(=O)c2ccc(C#N)cc2)CC3)c(C)c1 | – | inactive: -3.29% [at 11.2 µM] |
| CCSc1ncc(Cl)c(C(=O)N(Cc2ccc(C(C)(C)C)cc2)C2CCS(=O)(=O)C2)n1 (stereo not given) | inconclusive [falling, full curve, poor fit] | – |
| O=C(O)CCC(=O)Nc1nc2nccc(-c3ccccc3)n2n1 | inactive | – |
| O=C(C[n+]1cc(-c2ccc(Cl)c(Cl)c2)n2c1CCC2)N1c2ccccc2Sc2ccccc21 | inconclusive [falling, partial curve, poor fit] | – |
| Cc1ccccc1Cn1c(=O)n(CCCCC(=O)NCc2ccccc2Cl)c(=O)c2ccccc21 | inconclusive [falling, partial curve, poor fit] | – |
| Cc1cc(C(=O)COC(=O)CNS(=O)(=O)c2ccc3ccccc3c2)c(C)n1-c1ccccc1 | active: 200 µM [quencher] | – |
| CCn1c(=O)c2sccc2n2c(CCC(=O)N3CCN(c4ccccc4OC)CC3)nnc12 | inconclusive [falling, partial curve, poor fit] | – |
| Cc1cc(Br)ccc1NC(=O)c1coc(=O)c2ccccc12 | inconclusive [quencher, full curve] | – |
| O=S(=O)(c1ccccc1)c1nc(-c2cccs2)oc1N1CCCCC1 | inconclusive [falling, partial curve, poor fit] | – |
| Cc1ccc(NC(=O)c2cc(CN3CCOCC3)on2)cc1Cl | inconclusive [quencher, full curve] | – |
| CC1=C(C(=O)Nc2ccc(C)cc2Cl)C2(CCCCC2)OC1=O | active: 0.0056 µM [quencher] | – |
